Test results published in US20220125947A1.
Numbering of substitutions follows the chain as printed.

B1: VG9B27 (antibody, human IgG1, kappa)
heavy: EVQLVQSGAEVKKPGSSVKVSCKASGGTFSSYVISWVRQAPGQGLEWMGGILPILSTANYAQKFQGRVTITADKSTSTAYMELSSLRSEDTAVYYCARAHDYYYGMDVWGQGTMVTVSS[human IgG1 constant region omitted here]
light: [about 100 residues omitted here][about 120 residues omitted here]
B2: VG9B106 (antibody, human IgG1, kappa)
heavy: EVQLVQSGAEVKKPGASVKVSCKASGYTFTGYYLHWVRQAPGQGLEWVGWINPSSGDTDYAQTFQGRVTMTRDTSISTAYMELSRLRSDDTAVYYCANELGIGVFDYWGQGTLVTVSS[human IgG1 constant region omitted here]
light: DIVMTQSPDSLAVSLGERATINCKSSQSVLYSSNNKNYLGWYQQKPGQPPKLLIYWASTRESGVPDRFSGSGSGTDFTLTISSLQAEDVAVYFCQQYYSIPYTFGQGTKVDIKRTVAAPSVFIFPPSDEQLKSGTASVVCLLNNFYPREAKVQWKVDNALQSGNSQESVTEQDSKDSTYSLSSTLTLSKADYEKHKVYACEVTHQGLSSPVTKSFNRGEC
B3: VG9B65 (antibody, human IgG1, kappa)
heavy: QVQLVQSGAEVKKPGSSVKVSCKASGGTFNIYAINWVRQAPGQGLEWMGGIIPFFGTANYAQKFQDRVTITADKSTNTAYMELSSLRSEDTAVFYCARGGDSGYDWGFDYWGQGTLVTVSS[human IgG1 constant region omitted here]
light: DIVMTQTPLSSPVTLGQPASISCRSSQSLVHSDGNTYLSWLQQRPGQPPRLLIYQISNRFSGVPDRFSGSGAGTDFTLNISRVEADDVGVYYCMQATQFPLTFGGGTKVEIKRTVAAPSVFIFPPSDEQLKSGTASVVCLLNNFYPREAKVQWKVDNALQSGNSQESVTEQDSKDSTYSLSSTLTLSKADYEKHKVYACEVTHQGLSSPVTKSFNRGEC
B4: VG9B161 (antibody, human IgG1, lambda)
heavy: QVQLQESGPGLVKPSETLSLTCTVSGGSISSYFWSWIRQPPGKGLEWIGYIFYSGSTNYNPSLKSRVTILVDTSKNHFSLKLSSVTAADTAVYYCARVGRWELRGAFDIWGQGTMVTVSS[human IgG1 constant region omitted here]
light: QPVLTQSSSASGTPGQRVTISCSGSSSNIGSNTVNWYQQFPGTAPKLLIYSNNQRPSGVPDRFSGSKSGTSASLAISGLQSEDEAEYYCAAWDDSLNSPGVFGGGTKLTVLGQPKAAPSVTLFPPSSEELQANKATLVCLISDFYPGAVTVAWKADSSPVKAGVETTTPSKQSNNKYAASSYLSLTPEQWKSHRSYSCQVTHEGSTVEKTVAPTECS
B5: VG9B173 (antibody, human IgG1, lambda)
heavy: B4 heavy with S30N, S31N, F52Y, L70S, D72V, K75M, H77Q, V98E, R100K, G105S
light: QSVLTQPPSASGTPGQRVTISCSGSSSNIESNTVNWYQQLPRTAPKLLIYSNNQRPSGVPDRFSGSKSGTSASLAISGLQSEDEADYYCTAWDDSLNGPVFGGGTKVTVLGQPKAAPSVTLFPPSSEELQANKATLVCLISDFYPGAVTVAWKADSSPVKAGVETTTPSKQSNNKYAASSYLSLTPEQWKSHRSYSCQVTHEGSTVEKTVAPTECS
B6: VG9B182 (antibody, human IgG1, lambda)
heavy: QVQLVESGPGLVKPSETLSLTCTVSGDSINNHFWSWIRQPPGKGLEWIGFVFYNGNTNYNPSLKSRVTISIDTSKSQFSLKLTSVTAADTAVYYCARVGRWVLRTAFDIWGQGTMVTVSS[human IgG1 constant region omitted here]
light: B4 light with P2S, V3A, S7P, S8P, F40L, D61A, E86D, S98G
B7: VG9B111 (antibody, human IgG1, kappa)
heavy: QVQLLESGGGLVKPGGSLRLSCAASGFTFSTYSVNWVRQAPGKGLEWVSSISSDSSYIFYADSMKGRFTISRDNAKNSLYLHMNSLRAEDTAVYYCARDSVTGPFDYWGQGTLVTVSS[human IgG1 constant region omitted here]
light: DIVMTQSPSSLSASVGDRVTITCQASQDISHYLNWYQQKPGKAPKLLIYDSYILETGVTSRFSGSGSGTDFTFTINSLQPEDIAIYYCQQYDNLPYTFGQGTKVEIKRTVAAPSVFIFPPSDEQLKSGTASVVCLLNNFYPREAKVQWKVDNALQSGNSQESVTEQDSKDSTYSLSSTLTLSKADYEKHKVYACEVTHQGLSSPVTKSFNRGEC
B8: VG9B639 (antibody, human IgG1, kappa)
heavy: QVQLVQSGGGLVKPGGSLRLSCAASGFTFTTYRMNWVRQAPGKGLEWVSSISSSSIYIHSADSVKGRFTISRDNAKNSLYLQMNSLRAEDSAIYYCARERVYTVSFDYWGQGTLVTVSS[human IgG1 constant region omitted here]
light: B7 light with V3Q
B9: VG9B156 (antibody, human IgG1, lambda)
heavy: QVQLQESGPGLMKPSETLSLTCTVSNGSISGYFWNWIRQPPGKGLEWIGYIFYSGSTNYNPSLKSRVTISVDTSKNLVSLKLNSVTAADTAVYFCAKLGKWELRTAFDIWGQGTMVTVSS[human IgG1 constant region omitted here]
light: B5 light with S2L, S26T, E30G, N32D, R42G, A85T, T90A
B10: VG9B186 (antibody, human IgG1, lambda)
heavy: QVTLRESGPVLVKPTETLTLTCTVSGFSLTNIRMSVSWIRQPPGEALEWLAHIFSNDEKSYNSSLKSRLTISRDTSKSQVVLTLTNVDPVDTATYYCARMRLPYGMDVWGQGTMVTVSS[human IgG1 constant region omitted here]
light: B5 light with S26T, E30G, R42G, Y87F, T90A
B11: VG9B424 (antibody, human IgG1, kappa)
heavy: EVQLVESGGGLVKPGGSLRLSCSASGFTFSNYDMNWVRQAPGKGLEWVSSISSSSSYIYYADSVKGRFTISRDNAKNSLYLQMNSLRAEDTAVYHCARDVGVTTDYYYYGMDVWGQGTMVTVSS[human IgG1 constant region omitted here]
light: ETTLTQSPGTLSLSPGDRATLSCRASQSVASSYLAWYQQKPGQSPRLLIYGASSRATGIPDRFSGSGSGTDFTLTISRLEPEDFAVYYCQQYGSSPPYTFGQGTKLEIKRTVAAPSVFIFPPSDEQLKSGTASVVCLLNNFYPREAKVQWKVDNALQSGNSQESVTEQDSKDSTYSLSSTLTLSKADYEKHKVYACEVTHQGLSSPVTKSFNRGEC
B12: VG9B425 (antibody, human IgG1, kappa)
heavy: B11 heavy with V5L
light: B11 light with L106V
B13: VG9B427 (antibody, human IgG1, kappa)
heavy: B11 heavy with E1Q, M119T
light: B11 light with T2I, T3V, L4M, K105R

These binders were tested against TCR Vδ2 (TRDV2) on γδ T cells in PBMCs (human), A0JD36 (assay: cell-based or functional assay).
TCR Vδ2 (TRDV2) on γδ T cells in PBMCs (human), A0JD36, sequence (A0JD36 20-115, stated change not applied): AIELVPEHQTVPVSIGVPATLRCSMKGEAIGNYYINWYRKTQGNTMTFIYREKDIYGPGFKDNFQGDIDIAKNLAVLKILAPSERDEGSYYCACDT

| CD25+ (Vg9+ cells), flow staining | CD71+ (Vg9+ cells), flow staining | Granzyme B (Luminex, supernatant) | IFNγ (Luminex, supernatant) | IL6 (Luminex, supernatant) | TNFα (Luminex, supernatant) | Vg9 T cell %, flow staining | Binder |
| --- | --- | --- | --- | --- | --- | --- | --- |
| 35.4% | 92.6% | 4120 | 1490 | 274 | 3540 | 4% | B1 |
| 12.2% | 73.9% | 287 | 44 | 39 | 119 | 3.5% | B2 |
| 24.6% | 96.4% | 1040 | 179 | 190 | 42 | 7.2% | B3 |

These binders were tested against TCR Vδ2 (TRDV2) (human), A0JD36 (assay: cell-based or functional assay).
TCR Vδ2 (TRDV2) (human), A0JD36, sequence (A0JD36 20-115, stated change not applied): as above

| CD25+ (Vg9+ cells), flow staining | CD71+ (Vg9+ cells), flow staining | Granzyme B (Luminex, supernatant) | IFNγ (Luminex, supernatant) | IL6 (Luminex, supernatant) | TNFα (Luminex, supernatant) | Vg9 T cell %, flow staining | Granzyme B, Luninex (supernatant) | IFNγ, Luninex (supernatant) | IL6, Luninex (supernatant) | Binder |
| --- | --- | --- | --- | --- | --- | --- | --- | --- | --- | --- |
| 31.3% | 94.5% | 1670 | 620 | 286 | 1280 | 5.4% |  |  |  | B4 |
| 22.9% | 90.4% |  |  |  |  | 5.1% | 766 | 83 | 104 | B5 |
| 37.9% | 91% |  |  |  |  | 2.5% | 2180 | 938 | 209 | B6 |
| 27.8% | 84.4% | 98 | 44 | 32 | 42 | 8.8% |  |  |  | B7 |
| 37.8% | 94.7% | 4290 | 1400 | 755 | 6080 | 4.3% |  |  |  | B8 |
| 27.5% | 93.7% | 493 | 44 | 37 | 14 | 6.4% |  |  |  | B9 |
| 13.3% | 78.3% |  |  |  |  | 3.4% | 327 | 68 | 56 | B10 |

Same assay, conditions: not given

| TNFα, Luninex (supernatant) | Binder |
| --- | --- |
| 17 | B5 |
| 1040 | B6 |
| 429 | B10 |

The binders below were run against T cell receptor (TCR) Vγ9 (TRGV9) on Vγ9+ T cells in PBMCs (human), Q99603 (assay: cell-based or functional assay).
T cell receptor (TCR) Vγ9 (TRGV9) on Vγ9+ T cells in PBMCs (human), Q99603, sequence (Q99603 21-122): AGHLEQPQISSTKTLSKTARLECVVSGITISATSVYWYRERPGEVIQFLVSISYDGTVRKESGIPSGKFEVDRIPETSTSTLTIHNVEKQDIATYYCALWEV

| CD25+ (Vg9+ cells), flow staining | CD71+ (Vg9+ cells), flow staining | Granzyme B (Luminex, supernatant) | IFNγ (Luminex, supernatant) | IL6 (Luminex, supernatant) | TNFα (Luminex, supernatant) | Vg9 T cell %, flow staining | Binder |
| --- | --- | --- | --- | --- | --- | --- | --- |
| 36.7% | 98.8% | 3960 | 1400 | 931 | 174 | 12.1% | B11 |
| 39.3% | 98.6% | 3740 | 1360 | 612 | 127 | 15.6% | B12 |
| 50.6% | 99.1% | 4680 | 2490 | 340 | 220 | 13.6% | B13 |
